This passage reports enrichment ratio results from a collection of fitness landscapes (doi:10.1126/science.1257360).

The other results are listed elsewhere or left out.

First the molecules themselves.
B1: PhoQ; a variant is named by its letters at X, in order, P23837 (parent)
chain: MKKLLRLFFPLSLRVRFLLATAAVVLVLSLAYGMVALIGYSVSFDKTTFRLLRGESNLFYTLAKWENNKLHVELPENIDKQSPTMTLIYDENGQLLWAQRDVPWLMKMIQPDWLKSNGFHEIEADVNDTSLLLSGDHSIQQQLQEVREDDDDAEMTHSVAVNVYPATSRMPKLTIVVVDTIPVELKSSYMVWSWFIYVLSANLLLVIPLLWVAAWWSLRPIEALAKEVRELEEHNRELLNPATTRELTSLVRNLNRLLKSERERYDKYRTTLTDLTHSLKTPLXXLQXXLRSLRSEKMSVSDAEPVMLEQISRISQQIGYYLHRASMRGGTLLSRELHPVAPLLDNLTSALNKVYQRKGVNISLDISPEISFVGEQNDFVEVMGNVLDNACKYCLEFVEISARQTDEHLYIVVEDDGPGIPLSKREVIFDRGQRVDTLRPGQGVGLAVAREITEQYEGKIVAGESMLGGARMEVIFGRQHSAPKDE

Variants of B1 are the subject of this test. Briefly: enrichment ratio after two sorts for PhoP signalling (ratio (wild type AVST 3.29)); higher = more functional. The conditions noted are these: with PhoP (E. coli).
For PLKS, the enrichment ratio was at most 0.25.

As to YSGS, the enrichment ratio is at most 0.25.

With WRWV, the enrichment ratio was at most 0.25.

Consider HCDM, for which the enrichment ratio is at most 0.25.

As for LYTC, the enrichment ratio was at most 0.25.

On to KPCV, for which the enrichment ratio is at most 0.25.

As to FALQ, the enrichment ratio was found to be 7.48.

TSVK: the enrichment ratio was at most 0.25.

For the variant PMWM, the enrichment ratio is at most 0.25.

NIAC: the enrichment ratio was at most 0.25.

Consider HHPA, for which the enrichment ratio is at most 0.25.

As to AYPG, the enrichment ratio is at most 0.25.

Take NHLN: the enrichment ratio is at most 0.25.

Turning to WMHL, the enrichment ratio was at most 0.25.

For the variant RWTI, the enrichment ratio was at most 0.25.

As to HEKL, the enrichment ratio is at most 0.25.

Take NYRF: the enrichment ratio was determined as 0.803.

For MLQK, the enrichment ratio was at most 0.25.

Turning to EFGG, the enrichment ratio was at most 0.25.

As to TIHQ, the enrichment ratio came out at 1.2.

Take GLHR: the enrichment ratio was at most 0.25.

Regarding ACAS, the enrichment ratio turned out to be 7.49.

As to DPVL, the enrichment ratio was at most 0.25.

Take AYMK: the enrichment ratio is at most 0.25.

As to RRIA, the enrichment ratio is at most 0.25.

As to VNIM, the enrichment ratio is at most 0.25.

FMDT: the enrichment ratio was at most 0.25.

As for VEMK, the enrichment ratio is at most 0.25.

Consider YEGS, for which the enrichment ratio is at most 0.25.

In the case of ALFN, the enrichment ratio was at most 0.25.

Turning to MCGI, the enrichment ratio was at most 0.25.

RMWQ: the enrichment ratio is at most 0.25.

With HATW, the enrichment ratio was at most 0.25.

LWPH: the enrichment ratio is at most 0.25.

As to FFLL, the enrichment ratio was at most 0.25.

As for YGNY, the enrichment ratio was at most 0.25.

As to HYFR, the enrichment ratio was at most 0.25.

As to MWTS, the enrichment ratio is at most 0.25.

Turning to RCIR, the enrichment ratio was at most 0.25.

Take LDIF: the enrichment ratio was at most 0.25.

Take PLMK: the enrichment ratio was at most 0.25.

With RRQE, the enrichment ratio is at most 0.25.

On to MHQF, for which the enrichment ratio was determined as 0.444.

As for HQWL, the enrichment ratio was at most 0.25.

Take DRCK: the enrichment ratio was at most 0.25.

On to VHIW, for which the enrichment ratio was at most 0.25.

Turning to LWYC, the enrichment ratio was at most 0.25.

As to GYSS, the enrichment ratio is at most 0.25.

On to SSEL, for which the enrichment ratio stood at 0.485.

For the variant ANHW, the enrichment ratio was at most 0.25.

As for DMKG, the enrichment ratio is at most 0.25.

As to FMEM, the enrichment ratio was at most 0.25.

As to VVHP, the enrichment ratio was at most 0.25.

With SCCL, the enrichment ratio came to 18.7.

Consider LAQI, for which the enrichment ratio was at most 0.25.

In the case of TQHW, the enrichment ratio is at most 0.25.

As to YLKA, the enrichment ratio is at most 0.25.

MFRC: the enrichment ratio was at most 0.25.

For the variant IRDN, the enrichment ratio was at most 0.25.

YDTM: the enrichment ratio is at most 0.25.

As to EIFG, the enrichment ratio was at most 0.25.

With HDRK, the enrichment ratio is at most 0.25.

On to RCVS, for which the enrichment ratio was at most 0.25.

As for SVCN, the enrichment ratio was found to be 19.4.

In the case of MEHC, the enrichment ratio is 3.36.

In the case of SAMW, the enrichment ratio amounted to 1.19.

For IFHH, the enrichment ratio is at most 0.25.

As for FLFY, the enrichment ratio is at most 0.25.

With DCHV, the enrichment ratio was at most 0.25.

Regarding ESNV, the enrichment ratio was at most 0.25.

Turning to LSIF, the enrichment ratio is at most 0.25.

Regarding LWVK, the enrichment ratio is at most 0.25.

Turning to EACM, the enrichment ratio was at most 0.25.

As for NFGW, the enrichment ratio is at most 0.25.

As to GQGM, the enrichment ratio is at most 0.25.

For EHWF, the enrichment ratio was at most 0.25.

For the variant RPAY, the enrichment ratio is at most 0.25.

As to DEKD, the enrichment ratio was at most 0.25.

For TTFQ, the enrichment ratio came out at 5.22.

For MYIR, the enrichment ratio is at most 0.25.

With RVHD, the enrichment ratio is at most 0.25.

On to YSSA, for which the enrichment ratio was at most 0.25.

For QQDH, the enrichment ratio is at most 0.25.

MTIH: the enrichment ratio is at most 0.25.

Consider RLYT, for which the enrichment ratio is at most 0.25.

Consider SGND, for which the enrichment ratio was at most 0.25.

For the variant PNPR, the enrichment ratio is at most 0.25.

In the case of AFFN, the enrichment ratio is at most 0.25.

Take EQQV: the enrichment ratio was at most 0.25.

Take QCNH: the enrichment ratio is at most 0.25.

Regarding DPWL, the enrichment ratio is at most 0.25.

In the case of GCFD, the enrichment ratio was at most 0.25.

As for TTIG, the enrichment ratio is at most 0.25.

As to MFVL, the enrichment ratio was at most 0.25.

With NIHW, the enrichment ratio is at most 0.25.

Turning to WQYR, the enrichment ratio is at most 0.25.

In the case of DRIK, the enrichment ratio is at most 0.25.

Consider TIGH, for which the enrichment ratio worked out at 8.05.

With HYQP, the enrichment ratio was at most 0.25.

In the case of DCLH, the enrichment ratio is at most 0.25.

Take TCYS: the enrichment ratio turned out to be 0.305.

For VIWG, the enrichment ratio is at most 0.25.

As for DYCV, the enrichment ratio was at most 0.25.

ATND: the enrichment ratio was at most 0.25.

On to RPHL, for which the enrichment ratio was at most 0.25.

For GNVT, the enrichment ratio was at most 0.25.

Take QERG: the enrichment ratio was at most 0.25.

On to IANM, for which the enrichment ratio is at most 0.25.

Take DEWC: the enrichment ratio was at most 0.25.

LWLK: the enrichment ratio is at most 0.25.

For the variant VFGE, the enrichment ratio was at most 0.25.

Take PPIV: the enrichment ratio was at most 0.25.

For the variant HSRA, the enrichment ratio was at most 0.25.

As for TFDH, the enrichment ratio is at most 0.25.

On to DKFF, for which the enrichment ratio is at most 0.25.

As for SSYS, the enrichment ratio was at most 0.25.

In the case of WWQF, the enrichment ratio is at most 0.25.

Turning to QNQW, the enrichment ratio is at most 0.25.

Consider NQKS, for which the enrichment ratio is at most 0.25.

With WVAL, the enrichment ratio is at most 0.25.

For the variant AAFG, the enrichment ratio is at most 0.25.

On to GWKV, for which the enrichment ratio is at most 0.25.

For LHSG, the enrichment ratio was determined as 0.538.

Turning to LFTQ, the enrichment ratio is at most 0.25.

On to TQNQ, for which the enrichment ratio was determined as 5.59.

For IDSP, the enrichment ratio is at most 0.25.

On to HILW, for which the enrichment ratio is at most 0.25.

For the variant YARL, the enrichment ratio is at most 0.25.

Consider HTPD, for which the enrichment ratio was at most 0.25.

As to ANAC, the enrichment ratio was at most 0.25.

For EFFS, the enrichment ratio was at most 0.25.

Turning to IIVG, the enrichment ratio is at most 0.25.

For AGYY, the enrichment ratio was at most 0.25.

As to DPSL, the enrichment ratio was at most 0.25.

Turning to TYGS, the enrichment ratio was found to be 0.441.

As to AETA, the enrichment ratio came out at 5.73.

LAKI: the enrichment ratio was at most 0.25.

Regarding ERCK, the enrichment ratio was at most 0.25.

In the case of IIPW, the enrichment ratio was at most 0.25.

Turning to DFNF, the enrichment ratio was at most 0.25.

In the case of FKKP, the enrichment ratio was at most 0.25.

As for FYLE, the enrichment ratio is at most 0.25.

In the case of SHTT, the enrichment ratio was at most 0.25.

Consider SEDP, for which the enrichment ratio was at most 0.25.

As for WSGL, the enrichment ratio is at most 0.25.

Take TASR: the enrichment ratio came to 0.261.

Take EPLQ: the enrichment ratio was at most 0.25.

Regarding AHTY, the enrichment ratio is at most 0.25.

For IHML, the enrichment ratio was at most 0.25.

Regarding EMER, the enrichment ratio is at most 0.25.

As to HTQH, the enrichment ratio was at most 0.25.

With SQDT, the enrichment ratio was at most 0.25.

As to DNVI, the enrichment ratio was at most 0.25.
